The campaign covered roughly 45,000 compounds. About 65 (0.1%) were called active. The call rests on the fitted dose curve; in most records, active means well fitted activation curve with a large enough effect; inconclusive means small, poorly fitted or top-dose-only effect; inactive means no such curve, though single readings can be large or run the other way. Some of the results follow.
The molecules below were run against Galactocerebrosidase (Homo sapiens) (UniProt P54803) (assay: A Novel Cell-Based Assay to Identify Small Molecules for B -Galactocerebrosidase). Conditions: 145M-Twi-hGALC-G270D cells (Twitcher mouse brain line with human GALC G270D), HMU-beta-Gal fluorescence, 48 h; series mostly up to 57.5 µM; activation: at the top concentration.
Chain of UniProt P54803 (P54803 whole entry, looked up): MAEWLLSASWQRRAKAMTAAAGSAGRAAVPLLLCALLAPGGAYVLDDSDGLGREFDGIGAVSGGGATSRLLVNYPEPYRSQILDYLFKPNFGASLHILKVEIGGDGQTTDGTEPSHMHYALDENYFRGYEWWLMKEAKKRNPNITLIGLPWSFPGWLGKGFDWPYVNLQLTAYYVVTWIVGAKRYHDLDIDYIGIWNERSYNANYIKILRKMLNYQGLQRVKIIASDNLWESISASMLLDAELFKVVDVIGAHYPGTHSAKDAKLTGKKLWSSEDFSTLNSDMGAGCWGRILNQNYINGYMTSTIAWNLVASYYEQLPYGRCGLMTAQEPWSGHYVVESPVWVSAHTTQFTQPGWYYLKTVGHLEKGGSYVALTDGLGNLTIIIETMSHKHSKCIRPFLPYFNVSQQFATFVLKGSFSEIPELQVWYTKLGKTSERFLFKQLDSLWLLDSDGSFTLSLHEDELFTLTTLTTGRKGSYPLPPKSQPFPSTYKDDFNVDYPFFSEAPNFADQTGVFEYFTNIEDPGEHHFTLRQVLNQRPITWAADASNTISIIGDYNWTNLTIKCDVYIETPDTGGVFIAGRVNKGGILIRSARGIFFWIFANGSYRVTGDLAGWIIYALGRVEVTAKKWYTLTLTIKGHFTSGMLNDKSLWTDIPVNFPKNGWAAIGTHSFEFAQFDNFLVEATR
Outline: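 Fluorogenic HMU-b-Gal hydrolysis (0.1 mM final, pH 5.2 citrate-phosphate with 1 mg/mL sodium taurocholate; carbonate stop buffer) measures mutant GALC activity after compound treatment of live 145M-Twi Twitcher brain cells stably carrying human GALC-G270D, with wild-type GALC line alongside; activation sought.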
`COc1ccccc1NC(=O)CCS(=O)(=O)c1cc2c3c(c1)CCN3C(=O)CC2` was tested, and the “activation” value was inactive: -10.8%.
For `O=C(NCC1CCN(Cc2cccc(Cl)c2)CC1)c1cc2ccc3cccnc3c2[nH]1`, the “activation” value was inactive: -6.35%.
With `CCN(Cc1ccccc1)C(=O)CN1C(=O)COc2ccc(S(=O)(=O)N(CC)CC)cc21` the “activation” value was inactive: 9.28%.
With `COc1ccccc1CNC(=O)Cn1c(=O)oc2cc(S(=O)(=O)NCc3ccccc3)ccc21` the “activation” value was inactive: 2.17%.
`CC1=C(C(=O)Nc2ccc(Cl)cc2)C(C(C)C)n2nc(SCc3ccc(Cl)cc3)nc2N1` (configuration not stated) was tested, and the “activation” value was inactive: -1.78%.
With `COc1ccccc1Nc1nc(-c2ccccc2Cl)c2cc(Br)ccc2n1` the “activation” value was inactive: -6.31%.
`Cc1ccc(C)c(N2CCN(C(=O)CCn3c(=O)c4cccn4c4cccnc43)CC2)c1` was tested, and the “activation” value was inactive: -11.7%.
For `Cc1cc(C)c2c(CC(=O)Nc3ccc(S(=O)(=O)Nc4ncccn4)cc3)coc2c1`, the “activation” value was inactive: -10.3%.
In the case of `COc1ccc(OC)c(CCNC(=O)C2=C(C)C(=O)OC23CCC(C)CC3)c1` (configuration not stated), the “activation” value is reported as inactive: -15.7%.
For `O=C(Cn1nc(C(F)(F)F)c2c1CCC2)Nc1ccc(Cl)cc1`, the “activation” value was inactive: -2.69%.
For `COc1ccc(Cl)cc1NC(=O)Cn1nc(Cc2ccncc2)c2ccccc2c1=O`, the “activation” value was inactive: -4.75%.
For `Cc1cc(F)ccc1NC1(c2ccccc2)C(=O)c2ccccc2C1=O`, the “activation” value was inactive: -12.6%.
`COc1ccccc1NC(=O)N1CCC(CN2CCc3ccccc3C2)CC1` was tested, and the “activation” value was inactive: -4.51%.
`CCc1ccccc1NC(=O)C1CCN(C(=O)N2CC(C)Oc3ccc(Cl)cc32)CC1` (configuration not stated) was tested, and the “activation” value was inactive: -7.5%.
For `CCOc1ccccc1NC(=O)Cn1c(=O)n(Cc2ccco2)c(=O)c2ccc(C(=O)NC3CCCC3)cc21`, the “activation” value was inactive: -6.75%.
`CCOc1ccc(N(CC(=O)Nc2ccccc2CC)S(=O)(=O)c2c(C)[nH]c(=O)[nH]c2=O)cc1` was tested, and the “activation” value was inactive: -3.55%.
With `Cc1ccc(NC(=O)c2sc3nc[nH]c(=O)c3c2C)cc1Cl` the “activation” value was inactive: 7.57%.
`Cc1ccc(NC(=O)Cn2c(=O)oc3ccccc32)cc1C` was tested, and the “activation” value was inactive: 0.473%.
With `Cc1ccc(OC(=O)CSc2nnc(-c3cccs3)o2)cc1C` the “activation” value was inactive: 3.01%.
With `CCOc1ccc(-n2c(SCC(=O)N3CCCCCC3)nc3c([nH]c4ccccc43)c2=O)cc1` the “activation” value was inactive: 1.56%.
With `CC(C)COC(=O)c1ccc(N)cc1` the “activation” value was inactive: -15.3%.
In the case of `CCn1cc(C(=O)NCCc2ccc(OC)c(OC)c2)c(=O)c2cc(S(=O)(=O)N3CCC(C)CC3)ccc21`, the “activation” value is reported as inactive: -18.2%.
`COC(=O)c1c(NC(=O)c2cc(OC)c(OC)c(OC)c2Br)sc2c1CCC(C)C2` (configuration not stated) was tested, and the “activation” value was inactive: -11.8%.
`Cc1c(Cl)cccc1-n1ncc(C(=O)NCc2cccs2)c1C1CCN(C(=O)OC(C)(C)C)CC1` was tested, and the “activation” value was inactive: -13.5%.
`COc1ccc(CNC(=O)c2ccc3nc(CCc4ccccc4)oc3c2)c(OC)c1` was tested, and the “activation” value was inactive: -8.97%.
With `CC(C)CNc1ncnc2c1nnn2C` the “activation” value was inactive: -5.06%.
With `O=C(CCNS(=O)(=O)c1cccc2nsnc12)NCc1ccccc1` the “activation” value was inactive: -9.08%.

From PubChem BioAssay AID1159614 (National Center for Advancing Translational Sciences (NCATS), 2016)
Further: 0% is about no effect; nearly all actives have a fitted effect of over 65% in size.
